Some of the results follow. No stated cut-off is given here; in the data, active = 3.2 or more and inactive = the rest. Only a few entries rise above the background.
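Further: displayed peptides selected on beads carrying the immobilized SH2 domain, with library peptides lacking any tyrosine serving as negative controls.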

One test addresses SHP2 C-SH2 domain E139D. The experiment in a line: enrichment score (SH2-bound / input frequency) (ratio); bacterial display of known human phosphotyrosine sites (pTyr-Var adds point mutants) read by sequencing; higher = stronger binding; tyrosines were phosphorylated by kinases first. Conditions: peptide library: pTyr-Var.
Consider ATGGFYSYGGG [KRT24_Y120], for which the enrichment score was inactive: 0.737.

As to HFVDEYDRTIE [KRAS_Y32_P34R], the enrichment score was inactive: 0.62.

Consider SFIGQYSGKKE [L1CAM_Y1229], for which the enrichment score was inactive: 1.26.

For RSGIYYKPESL [L2HGDH_Y103_H98R], the enrichment score is inactive: 1.

For ATGGFYSFGGG [KRT24_Y120_YF], the enrichment score was inactive: 1.4.

GFGGGYGGVLT [KRT19_Y65_A60G_YF]: the enrichment score was inactive: 1.05.

Consider GLGGGYGGASG [KRT8_Y54], for which the enrichment score is inactive: 0.51.

In the case of AGHEEYSAMRD [KRAS_Y64_Q61H], the enrichment score was inactive: 0.441.

As for KIKGWYEKCEP [KRT26_Y119], the enrichment score is inactive: 0.952.

In the case of TQTPPYVKKHP [LARP1B_Y457], the enrichment score is inactive: 0.93.

As for EQLQSYQAEII [KRT33A_Y268], the enrichment score was inactive: 0.906.

For the molecule KENITYMKSEQ [L1TD1_Y24_R27S], the enrichment score is inactive: 0.775.

Regarding HFVDEYDLTIE [KRAS_Y32_P34L], the enrichment score is inactive: 0.926.

LEIETYPRLLD [KRT12_Y429_R430P]: the enrichment score is inactive: 0.674.

On to DRLASYSDKVR [KRT10_Y160_L161S], for which the enrichment score is inactive: 0.699.

Regarding DRLASNLDKVR [KRT10_Y160_Y160N], the enrichment score is inactive: 0.667.

Regarding RLLCEYQELMN [KRT75_Y434_R432C], the enrichment score is inactive: 0.688.

With DRLASYPDKVR [KRT14_Y129_L130P], the enrichment score is inactive: 0.665.

SGGGSYGSGGG [KRT1_Y539]: the enrichment score was inactive: 0.671.

In a further test the target is SHP2 C-SH2 domain wild-type. Described as above. Conditions: peptide library: pTyr-Var.
In the case of ATGGFYSYGGG [KRT24_Y120], the enrichment score is inactive: 0.802.

As for HFVDEYDRTIE [KRAS_Y32_P34R], the enrichment score is inactive: 0.818.

SFIGQYSGKKE [L1CAM_Y1229]: the enrichment score is inactive: 0.984.

For the molecule RSGIYYKPESL [L2HGDH_Y103_H98R], the enrichment score was inactive: 0.766.

Regarding ATGGFYSFGGG [KRT24_Y120_YF], the enrichment score is inactive: 1.16.

On to GFGGGYGGVLT [KRT19_Y65_A60G_YF], for which the enrichment score is inactive: 0.765.

GLGGGYGGASG [KRT8_Y54]: the enrichment score is inactive: 0.617.

Take AGHEEYSAMRD [KRAS_Y64_Q61H]: the enrichment score was inactive: 0.392.

KIKGWYEKCEP [KRT26_Y119]: the enrichment score was inactive: 1.02.

On to TQTPPYVKKHP [LARP1B_Y457], for which the enrichment score is inactive: 0.809.

For EQLQSYQAEII [KRT33A_Y268], the enrichment score is inactive: 0.786.

Regarding KENITYMKSEQ [L1TD1_Y24_R27S], the enrichment score is inactive: 0.571.

Consider HFVDEYDLTIE [KRAS_Y32_P34L], for which the enrichment score was inactive: 0.898.

Consider LEIETYPRLLD [KRT12_Y429_R430P], for which the enrichment score is inactive: 0.796.

On to DRLASYSDKVR [KRT10_Y160_L161S], for which the enrichment score is inactive: 0.747.

On to DRLASNLDKVR [KRT10_Y160_Y160N], for which the enrichment score was inactive: 0.777.

RLLCEYQELMN [KRT75_Y434_R432C]: the enrichment score is inactive: 1.21.

For DRLASYPDKVR [KRT14_Y129_L130P], the enrichment score was inactive: 0.664.

Regarding SGGGSYGSGGG [KRT1_Y539], the enrichment score is inactive: 0.705.

Another test addresses SHP2 N-SH2 domain L43F. Described as above. The note with it: peptide library: pTyr-Var.
ATGGFYSYGGG [KRT24_Y120]: the enrichment score is inactive: 0.863.

As to HFVDEYDRTIE [KRAS_Y32_P34R], the enrichment score is inactive: 0.794.

As for SFIGQYSGKKE [L1CAM_Y1229], the enrichment score is inactive: 0.923.

With RSGIYYKPESL [L2HGDH_Y103_H98R], the enrichment score was inactive: 0.872.

Take ATGGFYSFGGG [KRT24_Y120_YF]: the enrichment score was inactive: 1.15.

For the molecule GFGGGYGGVLT [KRT19_Y65_A60G_YF], the enrichment score is inactive: 0.895.

With GLGGGYGGASG [KRT8_Y54], the enrichment score was inactive: 0.606.

Consider AGHEEYSAMRD [KRAS_Y64_Q61H], for which the enrichment score was inactive: 0.549.

Turning to KIKGWYEKCEP [KRT26_Y119], the enrichment score is inactive: 0.846.

In the case of TQTPPYVKKHP [LARP1B_Y457], the enrichment score was inactive: 0.744.

As to EQLQSYQAEII [KRT33A_Y268], the enrichment score is inactive: 0.719.

On to KENITYMKSEQ [L1TD1_Y24_R27S], for which the enrichment score is inactive: 0.599.

Consider HFVDEYDLTIE [KRAS_Y32_P34L], for which the enrichment score was inactive: 0.968.

Regarding LEIETYPRLLD [KRT12_Y429_R430P], the enrichment score was inactive: 1.01.

Take DRLASYSDKVR [KRT10_Y160_L161S]: the enrichment score was inactive: 0.619.

Consider DRLASNLDKVR [KRT10_Y160_Y160N], for which the enrichment score was inactive: 0.637.

RLLCEYQELMN [KRT75_Y434_R432C]: the enrichment score was inactive: 1.4.

For the molecule DRLASYPDKVR [KRT14_Y129_L130P], the enrichment score is inactive: 0.655.

For SGGGSYGSGGG [KRT1_Y539], the enrichment score was inactive: 0.618.

For the next test, the target named is SHP2 N-SH2 domain T42A. Described as above. Conditions: peptide library: pTyr-Var.
With ATGGFYSYGGG [KRT24_Y120], the enrichment score is inactive: 0.734.

Regarding HFVDEYDRTIE [KRAS_Y32_P34R], the enrichment score was inactive: 0.637.

As for SFIGQYSGKKE [L1CAM_Y1229], the enrichment score is inactive: 0.909.

Regarding RSGIYYKPESL [L2HGDH_Y103_H98R], the enrichment score is inactive: 0.728.

In the case of ATGGFYSFGGG [KRT24_Y120_YF], the enrichment score is inactive: 1.17.

As to GFGGGYGGVLT [KRT19_Y65_A60G_YF], the enrichment score was inactive: 0.758.

Turning to GLGGGYGGASG [KRT8_Y54], the enrichment score is inactive: 0.718.

For AGHEEYSAMRD [KRAS_Y64_Q61H], the enrichment score was inactive: 0.429.

Turning to KIKGWYEKCEP [KRT26_Y119], the enrichment score is inactive: 0.848.

For the molecule TQTPPYVKKHP [LARP1B_Y457], the enrichment score was inactive: 0.861.

For EQLQSYQAEII [KRT33A_Y268], the enrichment score was inactive: 0.834.

For KENITYMKSEQ [L1TD1_Y24_R27S], the enrichment score is inactive: 0.581.

Regarding HFVDEYDLTIE [KRAS_Y32_P34L], the enrichment score is inactive: 0.94.

As to LEIETYPRLLD [KRT12_Y429_R430P], the enrichment score was inactive: 0.788.

As for DRLASYSDKVR [KRT10_Y160_L161S], the enrichment score is inactive: 0.641.

With DRLASNLDKVR [KRT10_Y160_Y160N], the enrichment score was inactive: 0.662.

Regarding RLLCEYQELMN [KRT75_Y434_R432C], the enrichment score was inactive: 1.22.

As for DRLASYPDKVR [KRT14_Y129_L130P], the enrichment score is inactive: 0.6.

Regarding SGGGSYGSGGG [KRT1_Y539], the enrichment score was inactive: 0.446.

The target in the next test is SHP2 N-SH2 domain T52S. The description is as above. The note with it: peptide library: pTyr-Var.
For the molecule ATGGFYSYGGG [KRT24_Y120], the enrichment score was inactive: 0.688.

As for HFVDEYDRTIE [KRAS_Y32_P34R], the enrichment score was inactive: 0.607.

Turning to SFIGQYSGKKE [L1CAM_Y1229], the enrichment score is inactive: 0.989.

Consider RSGIYYKPESL [L2HGDH_Y103_H98R], for which the enrichment score was inactive: 0.859.

As to ATGGFYSFGGG [KRT24_Y120_YF], the enrichment score is inactive: 1.22.

Take GFGGGYGGVLT [KRT19_Y65_A60G_YF]: the enrichment score is inactive: 0.837.

With GLGGGYGGASG [KRT8_Y54], the enrichment score is inactive: 0.642.

AGHEEYSAMRD [KRAS_Y64_Q61H]: the enrichment score was inactive: 0.508.

For KIKGWYEKCEP [KRT26_Y119], the enrichment score was inactive: 0.709.

For the molecule TQTPPYVKKHP [LARP1B_Y457], the enrichment score was inactive: 0.721.

As to EQLQSYQAEII [KRT33A_Y268], the enrichment score is inactive: 0.851.

As to KENITYMKSEQ [L1TD1_Y24_R27S], the enrichment score was inactive: 0.543.

Consider HFVDEYDLTIE [KRAS_Y32_P34L], for which the enrichment score was inactive: 0.667.

Turning to LEIETYPRLLD [KRT12_Y429_R430P], the enrichment score was inactive: 0.91.

In the case of DRLASYSDKVR [KRT10_Y160_L161S], the enrichment score was inactive: 0.649.

Regarding DRLASNLDKVR [KRT10_Y160_Y160N], the enrichment score is inactive: 0.701.

For RLLCEYQELMN [KRT75_Y434_R432C], the enrichment score is inactive: 0.922.

Take DRLASYPDKVR [KRT14_Y129_L130P]: the enrichment score was inactive: 0.712.

For SGGGSYGSGGG [KRT1_Y539], the enrichment score was inactive: 0.512.

For a further test, the target named is SHP2 N-SH2 domain wild-type. Described as above. The note with it: peptide library: pTyr-Var.
For the molecule ATGGFYSYGGG [KRT24_Y120], the enrichment score was inactive: 0.798.

For HFVDEYDRTIE [KRAS_Y32_P34R], the enrichment score was inactive: 1.02.

For the molecule SFIGQYSGKKE [L1CAM_Y1229], the enrichment score was inactive: 1.32.

Take RSGIYYKPESL [L2HGDH_Y103_H98R]: the enrichment score is inactive: 0.746.

Consider ATGGFYSFGGG [KRT24_Y120_YF], for which the enrichment score was inactive: 1.18.

Turning to GFGGGYGGVLT [KRT19_Y65_A60G_YF], the enrichment score is inactive: 0.987.

For GLGGGYGGASG [KRT8_Y54], the enrichment score is inactive: 0.716.

Regarding AGHEEYSAMRD [KRAS_Y64_Q61H], the enrichment score is inactive: 0.607.

On to KIKGWYEKCEP [KRT26_Y119], for which the enrichment score was inactive: 1.02.

For TQTPPYVKKHP [LARP1B_Y457], the enrichment score was inactive: 0.816.

EQLQSYQAEII [KRT33A_Y268]: the enrichment score is inactive: 0.732.

As for KENITYMKSEQ [L1TD1_Y24_R27S], the enrichment score was inactive: 0.601.

On to HFVDEYDLTIE [KRAS_Y32_P34L], for which the enrichment score is inactive: 1.2.

With LEIETYPRLLD [KRT12_Y429_R430P], the enrichment score is inactive: 0.81.

For the molecule DRLASYSDKVR [KRT10_Y160_L161S], the enrichment score was inactive: 0.74.

DRLASNLDKVR [KRT10_Y160_Y160N]: the enrichment score was inactive: 0.75.

On to RLLCEYQELMN [KRT75_Y434_R432C], for which the enrichment score is inactive: 1.59.

With DRLASYPDKVR [KRT14_Y129_L130P], the enrichment score was inactive: 1.01.

Turning to SGGGSYGSGGG [KRT1_Y539], the enrichment score was inactive: 0.559.

The values are drawn from the supplement of paper PMC10369915.
